# Results: PubChem BioAssay AID485367 (National Center for Advancing Translational Sciences (NCATS), 2010)
# About 560 (0.17%) of roughly 330,000 compounds were called active. This list was built around the results that the source calls inconclusive (neither active nor inactive); the mix of calls is not that of the screen. Calls come from the whole dose curve; as a rule, active = well fitted inhibition curve with a large enough effect; inconclusive = small, poorly fitted or top-dose-only effect, or effect the other way; inactive = flat fitted curve, though single readings scatter. No potency is given beside an inconclusive call; the fits are too rough.
# Target: ATP-dependent 6-phosphofructokinase (Trypanosoma brucei brucei) (UniProt O15648)
# UniProt O15648, sequence (O15648 whole entry, looked up): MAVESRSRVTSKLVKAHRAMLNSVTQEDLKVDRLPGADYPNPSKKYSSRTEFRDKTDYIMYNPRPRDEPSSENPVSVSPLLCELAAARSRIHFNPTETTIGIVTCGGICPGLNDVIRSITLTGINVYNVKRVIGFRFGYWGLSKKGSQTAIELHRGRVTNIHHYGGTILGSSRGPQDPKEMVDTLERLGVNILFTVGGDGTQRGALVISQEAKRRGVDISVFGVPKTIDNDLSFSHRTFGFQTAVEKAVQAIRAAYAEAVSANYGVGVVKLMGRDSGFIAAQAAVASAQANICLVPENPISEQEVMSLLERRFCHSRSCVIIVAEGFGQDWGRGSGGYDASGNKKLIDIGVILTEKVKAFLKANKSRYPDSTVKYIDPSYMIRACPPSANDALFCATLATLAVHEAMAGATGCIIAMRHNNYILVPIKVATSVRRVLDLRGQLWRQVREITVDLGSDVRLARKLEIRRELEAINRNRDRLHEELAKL
# Assay: qHTS Assay to Find Inhibitors of T. brucei phosphofructokinase; note: nearly all actives have a fitted effect of over 60% in size;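 for activity, negative = inhibition: 0% = uninhibited 1x PFK enzyme wells and -100% = no-enzyme wells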
# Details: T. brucei PFK, ADP-Glo luminescence; activity, negative = inhibition: at 57.5 µM (top of the series)
# Procedure, shortened: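 Compounds were pin-transferred as a titration series up to 57 uM into substrate buffer (0.5 mM F6P, 0.1 mM ATP, pH 8.0), then 1.25 nM PFK was added and reactions ran 45 min before ADP-Glo detection.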
# Potency is the fitted concentration of half-maximal effect; tags give direction and shape of the fitted curve.
Compound,Potency,"activity, negative = inhibition"
Cc1cccnc1NC(=S)Nc1ccc(Cl)c(Cl)c1,active: 13.5 µM,–
CN1CCN(S(=O)(=O)c2ccc(N3CCc4ccccc4C3)nc2)CC1,–,inactive: 1.69%
Cc1ccc2cc3c(N)c(C(=O)Nc4c(C)[nH]c(=O)[nH]c4=O)sc3nc2c1,"inconclusive [falling, single point]",–
CCOC(=O)c1sc(Nc2nc3ccc(OC)cc3s2)cc1C,"inconclusive [falling, single point]",–
CCNC(=O)NCCc1c[nH]c2ccc(Cl)cc12,"inconclusive [falling, single point]",–
COc1ccc(-c2oc3ccccc3c(=O)c2OCC(=O)O)cc1,"inconclusive [activator, single point]",–
CCOc1ccc(/C=N/Nc2ccc(Cl)nn2)c(O)c1,–,inactive: -4.31%
O=C1C=C(NCc2ccc3c(c2)OCO3)CC(c2ccccc2)C1 (stereo unspecified),"inconclusive [activator, single point]",–
CCN(CC)S(=O)(=O)c1ccc(NC(=O)C2COc3ccccc3O2)cc1 (stereo unspecified),"inconclusive [falling, partial curve]",–
O=[N+]([O-])c1cc(S(=O)(=O)N2CCCC2)ccc1NCCc1ccccc1,–,inactive: -0.213%
Cc1cc(C)nc(SSc2nc(C)cc(C)n2)n1,"inconclusive [falling, partial curve]",–
O=C(Cn1ccc(NC(=O)OCc2ccccc2)nc1=O)NCc1ccccn1,"inconclusive [falling, single point]",–
COc1cccc(-n2c(C)n[nH]c2=O)c1,–,inactive: -2.13%
Cc1cc(-c2ccccc2)nc(SCc2ccc(C(=O)O)cc2)n1,–,inactive: 0.857%
N#CCSc1nc2ccccc2c(=O)n1CCCC(=O)NCc1ccco1,–,inactive: -5.79%
CC(C)(C)OC(=O)C[C@@H]1C/C=C\C[C@@H](CC(=O)N(CCO)Cc2ccccc2)C(=O)N[C@H](C(C)(C)C)COC1=O,"inconclusive [falling, single point]",–
O=[N+]([O-])c1cccc2c(S(=O)(=O)N3CCOCC3)cccc12,"inconclusive [falling, single point]",–
Cc1csc(NC(=O)CSc2nnc(NC(=O)NC(C)(C)C)s2)n1,"inconclusive [falling, single point]",–
COc1ccc(CCNC(=O)CSc2nnc(-c3ccco3)c(-c3ccco3)n2)cc1OC,"inconclusive [falling, single point]",–
CCCCC(CC)C(=O)Nc1ccc(C)c(O)c1 (stereo unspecified),–,inactive: -12.1%
COc1ccccc1CNc1nc(C)c(C(=O)N(C)C)s1,"inconclusive [falling, single point]",–
O=C(CSc1nnc(Nc2ccccc2F)s1)NC(=O)CN1CCCC1=O,"inconclusive [falling, single point]",–
CN(C)S(=O)(=O)c1ccc(N2CCCC2)c(C(=O)Nc2ccccc2Br)c1,"inconclusive [falling, single point]",–

Compound,Potency,"activity, negative = inhibition"
Cc1ccc(SCc2cc(=O)c3c(=O)n(-c4ccccc4)[nH]c3[nH]2)cc1,–,inactive: -11.4%
c1cc2c(cc1C1=NNC(=NC3CC3)SC1)OCCO2,"inconclusive [falling, partial curve]",–
COCCn1nnnc1C(C(C)C)N(Cc1cccnc1)Cc1cc2cc(OC)ccc2[nH]c1=O (stereo unspecified),"inconclusive [activator, single point]",–
Cc1ccc(/C=N/NC(=O)Cc2ccc(Cl)cc2)c(O)c1,"inconclusive [falling, single point]",–
CCCC1Nc2ccc(C(=O)O)cc2C2C=CCC12 (stereo unspecified),"inconclusive [falling, single point]",–
O=C(Nc1nnc(-c2ccccc2)s1)c1ccccc1O,"inconclusive [activator, full curve]",–
COc1cc(C(c2c(C)[nH][nH]c2=O)c2c(C)[nH][nH]c2=O)ccc1OCc1ccc([N+](=O)[O-])cc1,–,inactive: -20.4%
COc1ccc(-n2nc(C(=O)NCC(=O)NCCC3=CCCCC3)c3ccccc3c2=O)cc1,–,inactive: -3.45%
O=C1C(SCCO)=C(SCCO)C(=O)c2ccccc21,active: 9.53 µM,–
COc1ccc2c(c1)c1ncn(Cc3ccc(F)cc3)c(=O)c1n2C,–,inactive: -6.21%
O=C(CSc1nc(NS(=O)(=O)c2ccccc2)cc(=O)[nH]1)Nc1ccc(F)cc1,"inconclusive [falling, single point]",–
C=CCOC(=O)c1[nH]c2c(c1C)C(=O)CC(c1ccco1)C2 (stereo unspecified),"inconclusive [falling, single point]",–
C/C(=N\S(=O)(=O)c1ccc(C)cc1)N1CCN(S(=O)(=O)c2ccccc2)C1,"inconclusive [activator, partial curve, poor fit]",–
O=C(NCc1ccc(Cl)cc1)c1ccc(CSc2nc3ccncc3[nH]2)cc1,"inconclusive [falling, single point]",–
COC(=O)c1[nH]c2cc(OC)ccc2c1NC(=O)CN1CCN(c2cccc(C)c2)C(C)C1 (stereo unspecified),–,inactive: 1.61%
O=C(C1CCN(S(=O)(=O)c2ccccc2)CC1)N1CCN(Cc2ccc3c(c2)OCO3)CC1,"inconclusive [falling, single point]",–
CCOC(=O)c1c(C)[nH]c(C(=O)N/N=C/c2cccc(OC)c2)c1C,"inconclusive [falling, single point]",–
CN1C(=CC=C2C=C(I)C(=O)C(I)=C2)C(C)(C)c2ccccc21,–,inactive: -8.66%
COc1ccccc1N1CCN(/N=C/c2cccc(OC)c2O)CC1,"inconclusive [falling, single point]",–
COCCN(C(=S)Nc1c(C)cc(C)cc1C)C(C)c1cccnc1 (stereo unspecified),"inconclusive [falling, single point]",–
COc1ccc(C(=O)OCC(=O)Nc2ccc(F)c(F)c2)cc1OC,"inconclusive [falling, partial curve]",–
O=C(/C=C/c1ccccc1)Nc1cccc(S(=O)(=O)Nc2ccccc2F)c1,active: 6.75 µM,–
Nc1cc(=O)[nH]c(SCc2ccc(Cl)cc2Cl)n1,–,inactive: -4.27%
